# Results published in publication PMC4336329 (PLoS ONE, 2015).
# The whole screen tested about 310,000 compounds, of which about 14,000 (4.5%) showed an effect of 50% or more. Effects have a minus sign here. Some of the results follow.
# Target: human ether-à-go-go-related gene (hERG) potassium channel (human, UniProt Q12809)
# Experiment: primary screen, population patch clamp on CHO cells stably expressing hERG
# 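Further: peak tail current of the secondary pulse compared with the same well before compound.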
# Chain of human ether-à-go-go-related gene (hERG) potassium channel (Q12809 whole entry, looked up): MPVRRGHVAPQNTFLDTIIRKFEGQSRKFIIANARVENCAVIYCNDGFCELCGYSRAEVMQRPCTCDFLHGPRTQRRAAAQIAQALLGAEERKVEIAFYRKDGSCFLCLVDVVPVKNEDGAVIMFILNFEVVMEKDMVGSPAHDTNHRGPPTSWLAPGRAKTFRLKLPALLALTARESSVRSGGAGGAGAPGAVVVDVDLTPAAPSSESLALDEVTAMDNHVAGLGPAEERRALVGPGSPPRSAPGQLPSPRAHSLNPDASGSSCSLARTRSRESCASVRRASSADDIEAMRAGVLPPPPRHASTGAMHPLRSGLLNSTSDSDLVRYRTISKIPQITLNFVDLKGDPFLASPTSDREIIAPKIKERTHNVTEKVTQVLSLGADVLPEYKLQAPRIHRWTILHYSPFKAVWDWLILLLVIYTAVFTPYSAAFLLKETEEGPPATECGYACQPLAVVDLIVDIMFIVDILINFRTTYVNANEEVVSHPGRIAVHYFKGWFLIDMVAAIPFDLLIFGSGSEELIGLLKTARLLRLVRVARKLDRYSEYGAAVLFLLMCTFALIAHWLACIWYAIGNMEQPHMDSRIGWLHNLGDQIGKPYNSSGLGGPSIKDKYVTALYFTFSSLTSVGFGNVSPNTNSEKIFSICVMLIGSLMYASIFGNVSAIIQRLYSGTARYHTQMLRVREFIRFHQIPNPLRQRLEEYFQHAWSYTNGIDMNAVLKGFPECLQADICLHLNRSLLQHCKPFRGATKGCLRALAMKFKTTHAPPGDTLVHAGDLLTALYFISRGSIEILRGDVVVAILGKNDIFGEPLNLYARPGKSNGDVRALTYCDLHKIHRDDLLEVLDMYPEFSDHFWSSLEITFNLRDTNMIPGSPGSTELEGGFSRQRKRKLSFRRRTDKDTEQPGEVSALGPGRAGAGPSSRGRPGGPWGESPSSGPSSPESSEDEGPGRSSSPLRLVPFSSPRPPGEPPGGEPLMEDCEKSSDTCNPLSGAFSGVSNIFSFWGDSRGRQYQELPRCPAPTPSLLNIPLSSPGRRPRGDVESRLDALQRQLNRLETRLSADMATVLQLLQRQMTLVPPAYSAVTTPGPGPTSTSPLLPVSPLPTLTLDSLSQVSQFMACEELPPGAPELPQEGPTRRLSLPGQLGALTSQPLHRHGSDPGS
row,Structure (SMILES),"hERG current change (%, negative = inhibition) at 10uM"
1,CCOC(=O)C1CCN(C(=O)C(=O)N2CCC(C(=O)OCC)CC2)CC1,-14.1%
2,C/C=C/c1ccc(OCCCCn2cncn2)c(OC)c1,-14.9%
3,COC(=O)c1cnc(NNS(=O)(=O)c2ccc(Cl)cc2)nc1C(F)(F)F,-7.18%
4,CNc1[nH]ncc1[N+](=O)[O-],12.4%
5,COc1ccc(/C=N/NC(=O)c2ccncc2)c(OC)c1,19.3%
6,CSc1ccc(C(=O)NCC(c2ccco2)N(C)C)cc1[N+](=O)[O-] (stereo not drawn),17.8%
7,O=C(C1=C(O)C(=O)N(CC2CCCO2)C1c1cccc(O)c1)c1ccco1 (stereo not drawn),5.04%
8,Cc1ccc(C)c(NC(=O)CSc2ccc(-c3ccco3)nn2)c1,31%
9,S=C(NCc1ccncc1)Nc1cccc(Cl)c1,-28.4%
10,COCCCNC(=O)C(=O)Nc1cc2c3c(c1)CCC(=O)N3CCC2,20.3%
11,COc1ccc(C(=O)Nc2ccc(S(=O)(=O)Nc3nccnc3OC)cc2)cc1OC,4.52%
12,COC(=O)c1ccc(/C=C(\C#N)c2ccccn2)cc1,15.2%
13,COc1ccccc1-c1nc(SCC(=O)Nc2ccccc2F)n[nH]1,-5.52%
14,CC(C)(C)c1ccc(OCC(=O)N2CCN(c3ccccn3)CC2)cc1,-51.7%
15,Cc1cc(C)n(CCN(C)C(=O)C2CCC(=O)N(CCN3CCOCC3)C2)n1 (stereo not drawn),9.46%
16,COc1cccc(NC(=O)C(=O)c2cn(CC(=O)N3CCOCC3)c3ccccc23)c1,-0.727%
17,COc1cc(C2Nc3ccc4ccccc4c3C3=C2C(=O)CC(C)(C)C3)ccc1OCC(=O)O (stereo not drawn),19.5%
18,Cc1ccnc(NC(=O)CCNC(=O)c2ccc(Cl)cc2)c1,13.2%
19,CCOc1c(N2CCOCC2)c(=O)c1=O,13.5%

row,Structure (SMILES),"hERG current change (%, negative = inhibition) at 10uM"
1,CN1C(=O)N(C)C2(c3ccccc3)N(C(C)(C)C)C(=O)NC12c1ccccc1 (stereo not drawn),-20%
2,COC(=O)c1sc2ncccc2c1OCc1c(Cl)cccc1Cl,34.2%
3,COc1ccc(N=Nc2ccc(CO)cc2)cc1,-28.3%
4,COc1cccc(Oc2c(C)oc3cc(OC(=O)N(C)C)ccc3c2=O)c1,-12.4%
5,CCC1(CC)Cc2ccccc2C(C2=C(O)CC(C)(C)CC2=O)=N1,7.12%
6,CCOC(=O)NCc1ccc(CNC(=O)OCC)cc1,11.8%
7,COc1cc(C(=S)N2CCOCC2)ccc1OS(=O)(=O)c1ccc(NC(C)=O)cc1,-3.21%
8,O=C(CN(Cc1ccco1)Cc1ccco1)Nc1cc(S(=O)(=O)N2CCCCC2)ccc1Cl,-49.6%
9,CC(C)(C)C(=O)Nc1nnc(SCC(=O)NC2CCCC2)s1,14.4%
10,O=[N+]([O-])c1ccc(S(=O)(=O)CC(CN2CCOCC2)N2CCOCC2)cc1 (stereo not drawn),-1.68%
11,CC1(C)NC(=O)N(CCOCCOc2cccc(Oc3ccccc3)c2)C1=O,-8.91%
12,Cc1ccc(N(Cc2cc(=O)[nH]c3ccccc23)C(=O)c2ccco2)cc1,-34.4%
13,Cc1cc(OC(C)C(=O)NCC2CCC(C(=O)O)CC2)c2c(C)cc(=O)oc2c1 (stereo not drawn),24.5%
14,O=C(NC1CC1)C1CCN(C2CCN(C(=O)/C=C/c3ccc(F)cc3)CC2)CC1,-62.9%
15,Cc1ccc(Sc2ccc(S(=O)(=O)Nc3ccc(CC(=O)O)cc3)cc2)cc1C,3.13%
16,O=C(CCC(=O)Nc1cccnc1)Nc1cccnc1,16.8%
17,CCOc1ccccc1NC(=O)CN1CCN(C(=O)C2CCCO2)CC1 (stereo not drawn),-10.6%
18,N#Cc1sc(NCc2ccccc2)nc1Cl,-12.3%
19,Cc1ccc(C)c(NC(=S)N2CCN(c3ccccn3)CC2)c1,14.2%

row,Structure (SMILES),"hERG current change (%, negative = inhibition) at 10uM"
1,Cn1nnnc1SCC(=O)Nc1ccccc1Cl,9.22%
2,Cn1cc(Br)c(C(=O)NNC(=O)c2ccc(Br)cc2)n1,4.21%
3,CCOC(=O)C1C(=O)NC(c2ccccc2)=NC1c1ccc(Br)cc1 (stereo not drawn),10.4%
4,CC(=O)/C=C\c1ccccc1OC(=O)c1cc2ccccc2oc1=O,12.2%
5,O=Cc1cn(CCC(=O)O)nc1-c1cccc(Cl)c1,16.7%
6,COc1ccc(NC(=O)Cc2c[nH]c3ccccc23)cc1S(=O)(=O)N1CCOCC1,-0.207%
7,O=C(C[n+]1ccccc1)N/N=C/c1ccccc1[N+](=O)[O-].[Cl-],40.2%
8,C=C1CCC(O)C2(C)CCC3C(C)C(=O)OC3C12O (stereo not drawn),13.6%
9,Cc1cc(NC(=O)CCc2ccc(S(=O)(=O)N3CCOCC3)cc2)n(-c2ccccc2)n1,-15.2%
10,CCOc1ccc(-n2ccnc(SCC(=O)Nc3cccc(OC)c3)c2=O)cc1,-12.8%
11,O=C(OCc1nnc(-c2ccccc2)o1)c1ccc([N+](=O)[O-])o1,8.25%
12,COc1ccc(NC2CCCN(C(=O)c3csc(C(C)C)n3)C2)cc1 (stereo not drawn),0.853%
13,NS(=O)(=O)c1ccc(CCNS(=O)(=O)c2cccc(C(=O)O)c2)cc1,15.9%
14,COc1cc(OC)cc(C(=O)NC(=S)N2C[C@H]3C[C@H](C2)c2cccc(=O)n2C3)c1,16.6%
15,COc1ccc(/C=N/N=C/c2c[nH]c(=O)c(C#N)c2Nc2ccccc2)cc1,5.81%
16,NC(=S)NNC(=O)c1ccccc1Cl,2.41%
17,CCC(=O)Nc1nc2ccc(NC(=O)COc3ccccc3)cc2s1,28.7%
18,Cc1ccc(S(=O)(=O)N2CCc3ccccc3C2)cc1C,20.4%
19,O=C(CCN1CCN(c2ccccc2)CC1)Nc1ccc(OCc2ccccc2)cc1,6.94%
